The source of these data is the supplement of paper PMC11417369.

± gives the standard deviation of the averaged measurements. The list shows a part of the results.

In this assay the test system is PfAP2-EXP AP2 domain (GST-tagged). The assay is described as follows: gcPBM binding intensity (ln(normalized median fluorescence intensity)); higher = stronger DNA binding. The method, boiled down:
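The highest Masliner-normalised natural-log median intensity across replicate spots of either probe orientation is reported as binding intensity. GST-tagged P. falciparum DNA-binding domains expressed in E. coli were applied for 1 h to an Agilent 4 × 180k array of primer-extended double-stranded 36-bp intergenic genomic probes plus negative controls, and bound protein was detected with Alexa488 anti-GST antibody and scanned at 488 nm.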
On to “CTTTTTCTTTTCCGGCGTACAGACTTAGTAGTAGAT [XGTACX_site2268]”, for which the “gcPBM binding intensity (ln)” value is 8.81 ± 0.4. The figure for “TATATAGCTAAAAACACACAAATATGTACACATAAA [CACACA_site7665]” is 8.71 ± 0.39; for AATATTCAATATAAAGTGCATTATTGTGGACCTAAT it is 8.77 ± 0.099; for “ACTAATACATAAAAAAGTACAAATATGAGTATTAAC [XGTACX_site7281]” it is 9.01 ± 0.29. The value for “TAAAATATAGGAAATACATGCATATTAAATATTCCT [TGCATGCA_site1057]” was 8.66 ± 0.28; that for “TACTTCATTCATTTTACACACATATAAACCCTTTTA [CACACA_site3229]” was 8.9 ± 0.45. The value for “TACATGCAAAAAATTCCACACACACCCCCACATATA [CACACA_site8329]” was 9.82 ± 0.42; that for “ATAAATTGATTCAACACACACATATGTAGGAAGTTA [CACACA_site3253]” was 8.64 ± 0.61; that for “AAAAAAAAAAAAAGTACACACATACAGATAAATATA [CACACA_site5067]” was 8.61 ± 0.55. In the case of “TTTTTTAAATTGGTAGTGCAATATGATTGAACAAAA [GTGCAC_site9715]”, the “gcPBM binding intensity (ln)” value worked out at 8.6 ± 0.014. The figure for “AAATTATTAAAAAAGTGTACATATTTTTATAATACC [XGTACX_site5610]” is 8.39 ± 0.23; for “ATAAGCATACATATTACACACATATAACATCTATAT [CACACA_site7219]” it is 8.61 ± 0.47; for “GGGTATACCAATATAACACACATATATATATAATAT [CACACA_site450]” it is 8.74 ± 0.39.

With “TATTTTTTTTCAAAAAAGTTTATTTAGAACTAAATA [XGTACX_negctrl_site487]”, the “gcPBM binding intensity (ln)” value was 7.88 ± 0.43. For the sequence “TTAATCAAATTACTATGTACATAAAACATATAAGAA [XGTACX_site381]”, the “gcPBM binding intensity (ln)” value amounted to 8.72 ± 0.33. The figure for “ATAAATACGATTAATTAGGTTTGTATAAATTAAATT [GTGCAC_negctrl_site635]” is 8.18 ± 0.33; for “AATATCACATTCCACGGTACACACTAAAAGAAAAAT [XGTACX_site7653]” it is 8.77 ± 0.51.

Regarding “ATAACTTTTGCGCGTACACACATTTATCCTCTTTAT [CACACA_site209]”, the “gcPBM binding intensity (ln)” value was 9.8 ± 0.54. With “TCATGTAGTAAAAACTGTACAAATTATTTATCATGT [XGTACX_site1727]”, the “gcPBM binding intensity (ln)” value worked out at 8.58 ± 0.44. For “TTTCATTTTAGAAGTACACACAAAAAATAAAATAAT [CACACA_site2141]”, the “gcPBM binding intensity (ln)” value was 8.8 ± 0.44. The value for “TTTTCTTTATTATAATGTACTCACAAATAAATATAA [XGTACX_site7298]” was 8.45 ± 0.35. The figure for “CTATAATAGAAGTGTACACACATATTTATGTCTGTA [CACACA_site7462]” is 8.47 ± 0.26; for “GATGGGCAAATTTACTGTACTTTTATAATATTTTTT [XGTACX_site4830]” it is 8.77 ± 0.35. The value for “TATAATGGTAAAAACACACAAATATGAAGATGTTAA [CACACA_site6479]” was 8.59 ± 0.36. On to “AAAATTGTGAAAGGGAAGATGATCAAATTGTTAAGG [CACACA_negctrl_site1492]”, for which the “gcPBM binding intensity (ln)” value was determined as 8.64 ± 0.4.

“GTACCTATAAATATTACACACATTTTCATTTTTAAC [CACACA_site7022]”: the “gcPBM binding intensity (ln)” value worked out at 8.93 ± 0.34. The figure for “AAAAAAAATTATATTTGTACGCATTAAAAAATCTAA [XGTACX_site1616]” is 8.4 ± 0.36. The value for “CTTAAAAACAAAAATGCACACATAATAAGCATATGT [CACACA_site9149]” was 8.63 ± 0.42. The figure for “TGAAATTAGATATATACACACATATAGATTTATATG [CACACA_site7619]” is 8.17 ± 0.49; for “ATTAAACTCATTAAGAGTACAGATAACATTAAAGTA [XGTACX_site8697]” it is 8.52 ± 0.36; for “TTTTTTAAAGCCTGTTCATCATCCTTACCTATCAAC [GTGCAC_negctrl_site452]” it is 8.64 ± 0.55.

As for “TGTCCTTATTGGCACACACACATATAAGAAATTTAA [CACACA_site5724]”, the “gcPBM binding intensity (ln)” value is 8.46 ± 0.47.

Take “TATTTTTTCTTAAACACACACATATAGATTTATAAC [CACACA_site7354]”: the “gcPBM binding intensity (ln)” value came to 8.61 ± 0.52. Take “ACCCTATTTATATATACACACACATATATAAATAAA [CACACA_site8980]”: the “gcPBM binding intensity (ln)” value amounted to 8.78 ± 0.31. For the sequence “ATATGGAATGATCATAGTACATAATTTAAAATTTTA [XGTACX_site3568]”, the “gcPBM binding intensity (ln)” value stood at 8.61 ± 0.42. “CTAATTCGTATATGCTGTACCTTTTTCTTACGACTA [XGTACX_site4392]”: the “gcPBM binding intensity (ln)” value was 8.86 ± 0.33. The figure for “AACATATATAATATTTGTACTTATATACAAAATATG [XGTACX_site7502]” is 8.32 ± 0.34; for “ATCAGATATATATATTGTACATTTATATATAAATCA [XGTACX_site1960]” it is 8.46 ± 0.36; for “ATTAAAAATTATATTTTATAAAAATTAAAAGAAATA [CACACA_negctrl_site65]” it is 8.28 ± 0.27.

Regarding ACTTTTTTGAACAACGTGCACGTATTCATAACAAAA, the “gcPBM binding intensity (ln)” value was determined as 8.87 ± 0.085. The figure for “ATAGGATGTTTGCACTGTACCAAAAAATGAGCTGCA [XGTACX_site2825]” is 8.9 ± 0.38. The figure for “ATTTATTTATCTAGCTATTCACCATTTTCTTTTGTT [CACACA_negctrl_site1259]” is 8.86 ± 0.41; for “AAAGTATACAATGACGCATGCATATATATATACATA [TGCATGCA_site429]” it is 9.38 ± 0.18; for “TAGAATATGTTTAGTTGTACAAAACAAAATGGAATT [XGTACX_site5293]” it is 8.61 ± 0.33.
